Inconclusive means that the source gave no clear call. Such entries were picked first, then a sample of the others. Activity calls are given as the source filed them. The call rests on the fitted dose curve; in most records, active means well fitted curve in either direction with a large enough effect (not every such curve was filed as active); inconclusive means small, poorly fitted or top-dose-only effect, or another doubt; inactive means flat fitted curve, though single readings scatter.
Assay: NFAT Signaling Pathway (AID 444);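 further: carbachol stimulus at about its EC50 of 1 µM final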
Settings: Jurkat NFAT-bla M1, carbachol, beta-lactamase ratio, 5 h; at 17.2 µM (top of the series) unless noted
Summary of the method: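 Jurkat cells carrying an NFAT-driven β-lactamase reporter and co-transfected muscarinic M1 receptor were treated with compound plus carbachol (1 uM final, an EC50 level) for 5 h at 37 °C. CCF4 loading followed for 1 h at RT; 460/530 nm ratio gave %activity.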
On the % scale 0 is the no-effect control and ±100 the full control effect.

Structure (SMILES)	activity change, negative = inhibition
COn1c(=S)[nH]c2ccccc2c1=O	inactive: 11.2%
CS(=O)(=O)N1CCC[C@@]2(CCN(Cc3ccccc3)C2)C1	inactive: 1.85% [at 7.69 µM]
O=C(c1ccncc1)N1CCC2(CC1)CN(Cc1cc(C(F)(F)F)cc(C(F)(F)F)c1)C2	inconclusive: -46.2% [inhibitor] [at 7.69 µM]
CCCCC(=O)C1CCN(Cc2ccccc2)CC1	inconclusive: -52.9% [inhibitor]
CN=C(c1ccco1)n1c(=S)nc(-c2ccco2)n(C)c1=S	inconclusive: -35.8% [inhibitor]
Nc1ccc2ncccc2c1N	active: -85.4%
CC[N+](C)(CC)CCC[n+]1c(-c2ccccc2)c2cc(N)ccc2c2ccc(N)cc21	inconclusive: -45.7% [inhibitor]
COc1ccc2[nH]c(C)c(C(=O)CN3CC(C)OC(C)C3)c2c1 (stereo unspecified)	inactive: -1.69%
Cc1sc(-n2c(C)ccc2C)c(C#N)c1C	inactive: -9.11%
COc1ccccc1C1/C(=C(/O)c2cnn(-c3ccccc3)c2C)C(=O)C(=O)N1CCN(C)C (stereo unspecified)	inactive: 1.4%
COc1ccc(S(=O)(=O)N2CCC(N3CCCCC3)CC2)cc1	inconclusive: -59.1% [inhibitor]
Cc1nc(-c2c(-c3ccc(O)cc3O)noc2C(F)(F)F)cs1	inactive: -22%
C[N+]1(C)CC[C@@H](OC(=O)[C@@](O)(c2ccccc2)C2CCCC2)C1	active: -43.8%
C=CC[N+](C)(C)CCCNC(=O)/C=N/O	inconclusive: 5.8% [inhibitor]
NC(N)=NCCCC(=O)O	inactive: 13.2% [at 7.69 µM]
COc1ccccc1CN1CCC2(CC1)CCN(C(=O)c1csnn1)CC2	inconclusive: -65.6% [inhibitor] [at 7.69 µM]
CCOC(=O)c1ccc(-n2c(=O)[nH]c3ccccc3c2=O)cc1	inactive: 6.82%
N#Cc1ccc(CN2CCCC3(CCN(C(=O)c4csnn4)CC3)C2)cc1	inconclusive: -75.3% [inhibitor] [at 7.69 µM]
COc1ccc(CSc2nnc3n(C)c(=O)c4c5c(sc4n23)CCCC5)cc1	inconclusive: -50% [inhibitor]
Cn1cccc1/C=N/n1cnnc1	inactive: -1.22%
CCCCC[C@H](O)/C=C/[C@@H]1[C@@H](CCCCCCC(=O)O)[C@@H](O)C[C@H]1O	inconclusive: -67% [inhibitor]
Cc1noc(C)c1C(=O)N1CCC2(CCCN(Cc3ccccc3)C2)CC1	inconclusive: -52.9% [inhibitor] [at 7.69 µM]
O=C(NCCCNCc1ccccc1)/C(=N\O)c1ccccc1	inactive: -1.67%
COc1ncc2nc(-c3cc(F)cc(F)c3)c(=O)n(C)c2n1	inactive: -1.78% [at 7.69 µM]
COc1ccc(-n2c(=O)c(-c3cn(C)c4ccccc34)nc3cncnc32)cc1	inactive: 6.02% [at 7.69 µM]
CC1(C)Cc2c(c(N3CCCCC3)[nH]c(=S)c2C#N)CS1	inconclusive: -54.6% [inhibitor]

— PubChem BioAssay (NCATS)
